About 340 (0.77%) of roughly 44,000 compounds were called active. Inconclusive results (about 5%) are left out. The call rests on the fitted dose curve; in most records, active means well fitted inhibition curve with a large enough effect; inconclusive means small, poorly fitted or top-dose-only effect; inactive means flat fitted curve, though single readings scatter. The list shows a part of the results.
Potency means the concentration at half of the fitted maximal effect.

A short description of this assay: Acumen qHTS Assay for Inhibitors of the mTORC1 Signaling Pathway in MEF (Tsc2-/-, p53-/-) Cells: Sytravon. Further: nearly all actives have a fitted effect of over 50% in size.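 On activity change, negative = inhibition: plate controls were DMSO for no effect and rapamycin for full effect.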 The note with it: phospho-rpS6 immunofluorescence/PI, 24 h; series mostly up to 38.3 µM; activity change, negative = inhibition: at the top concentration. A digest of the protocol: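 Tsc2-/-, p53-/- mouse embryonic fibroblasts (empty-vector line) exposed to compound 24 hrs at 37 C, fixed, immunostained for phospho-rpS6 and counterstained with propidium iodide. Acumen laser scanning gives % positive cells from Alexa 488/PI ratio, thresholded using 7.5 nM rapamycin; PI count gives viability.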
(Quantitative high-throughput screening tests each substance at several concentrations.)
In the case of `CCN(C(=O)NCc1noc2ccccc12)c1cc(C)ccc1C`, the “activity change, negative = inhibition” value is inactive: -4.1%.

On to `CCOC(=O)c1nc(Nc2cccc(C)c2)c2ccccc2n1`, for which the “activity change, negative = inhibition” value was inactive: 4.1%. The same measure, in the same setting: then `CCCCCOc1ccc(C(=O)N(Cc2ccccc2)C2CCS(=O)(=O)C2)cc1` (configuration not stated), with inactive: -12.7%; and `CCOc1ccc(CNC(=O)CCn2cccn2)cc1OC`, with inactive: -2.57%; and `CCN(CCCNC(=O)c1nn(-c2ccc(OC)cc2)c(=O)c2c1c1ccccc1n2C)c1cccc(C)c1`, with inactive: 1.83%. The same measure, in the same setting: the figure for `COc1ccc(-c2cccc(NS(=O)(=O)c3cc(C)c(Cl)cc3C)c2)nn1` is inactive: 0.0941%. Consider `Cc1cccc(CS(=O)(=O)Cc2ccc(C(=O)NCc3ccc(Cl)cc3)o2)c1`, for which the “activity change, negative = inhibition” value was inactive: -11.3%.

Take `CCCCC12CN3CC(C)(CN(C1)C3c1c(C)[nH]c(=O)[nH]c1=O)C2=O` (configuration not stated): the “activity change, negative = inhibition” value was inactive: -10.1%.

`CCOc1ccc(CCNC(=O)c2cc3c(-c4cccc(OC)c4)nn(C)c3s2)cc1OCC`: the “activity change, negative = inhibition” value was inactive: -10.4%.

`CCOc1ccc(NC(=O)CN2C(=O)C(c3ccccc3)=NC23CCCCCC3)cc1`: the “activity change, negative = inhibition” value was inactive: -7.17%.

`Cc1cccc(Cn2c(C)c(C)c3cc(C(=O)NCc4ccc(C)o4)ccc32)c1`: the “activity change, negative = inhibition” value was inactive: 0%. Same read-out and setting: then `Cc1cc(NC(=O)CN(C)S(=O)(=O)c2ccc3c(c2)CCC(=O)N3)ccc1Br`, with inactive: 1.16%; and `CCC(C(=O)NCCc1ccc(Cl)cc1)n1nc(C)c2c(C)n(-c3ccccc3)nc2c1=O` (configuration not stated), with inactive: -1.43%. On the same count and under the same terms, then `Cc1nc2nc(SCC(=O)NC(C)c3ccccc3)nn2c(C)c1Cc1c(F)cccc1Cl` (configuration not stated), with inactive: 1.77%; and `CCOc1ccc(CN2C(=O)c3ccccc3Sc3ccc(C(=O)NCc4ccc(C)cc4)cc32)cc1`, with inactive: -2.05%.

Regarding `COC(=O)c1ccc(NC(=O)CC2C(=O)N(c3cccc(OC)c3)C(=O)N2Cc2cccc(OC)c2)cc1` (configuration not stated), the “activity change, negative = inhibition” value is inactive: 0%.

Take `COc1cccc(CSc2nc3n(n2)C(c2ccccc2C)C(C(=O)Nc2ccccc2OC)=C(C)N3)c1` (configuration not stated): the “activity change, negative = inhibition” value is inactive: -3.92%. For the molecule `O=C(CSc1oc(-c2ccco2)nc1S(=O)(=O)c1ccc(Cl)cc1)c1ccccc1`, the “activity change, negative = inhibition” value is inactive: 0%.

In the case of `COCCCn1c(=N)c(C(=O)NC2CCCC2)cc2c(=O)n3ccccc3nc21`, the “activity change, negative = inhibition” value was inactive: -0.367%. On the same count and under the same terms, the figure for `Cc1ccc(-c2nc3c4cnn(-c5cc(Cl)ccc5Cl)c4ncn3n2)cc1` is inactive: 1.26%; for `Cc1ccc(CCNC(=O)CCSCc2ccc(Cl)cc2)cc1` it is inactive: 11.3%; for `Cc1ccc(S(=O)(=O)c2nnn3c2nc(Nc2ccc(C(C)C)cc2)c2sccc23)cc1C` it is inactive: -0.393%.

Consider `CCOc1ccc(-n2c(SCc3nc(-c4ccccc4C)no3)nnc2-c2ccccc2)cc1`, for which the “activity change, negative = inhibition” value was inactive: -3.82%.

`CC(C)Cc1nn2c(=O)cc(COC(=O)c3ccccc3NC(=O)c3ccccc3)nc2s1`: the “activity change, negative = inhibition” value is inactive: 0.658%. Same read-out and setting: then `CC(=O)Nc1ccc(NC(=O)CN2C(=O)CN(C)C(=O)c3ccccc32)cc1`, with inactive: 0.909%. As for `CCCn1c(=O)c2sccc2n2c(CCCC(=O)NCCOC)nnc12`, the “activity change, negative = inhibition” value is inactive: 4.14%. On the same count and under the same terms, then `CN(C)c1ccc(CNc2nc(-c3ccco3)nn2C(=O)c2cccc([N+](=O)[O-])c2)cc1`, with inactive: -0.107%; and `CN(C)c1ccc(CN(CC2CCCO2)C(=O)COc2ccc(Cl)cc2)cc1` (configuration not stated), with inactive: -7.71%.

Regarding `CCc1ccc(-n2c(C)nc3cc(C(=O)NCCc4ccccc4)ccc32)cc1`, the “activity change, negative = inhibition” value was inactive: 9.94%. The same measure, in the same setting: the figure for `COc1cccc(CN2C(=O)c3ccccc3C2C(=O)NCCc2ccc(OC)c(OC)c2)c1` (configuration not stated) is inactive: 11.6%. Still for that read-out and setting: then `COc1ccccc1NC(=O)CSc1ncc2c(n1)-c1cc(Cl)ccc1N(C)S2(=O)=O`, with inactive: 8.43%; and `CC(C)CC(=O)Nc1ccc(C(=O)OCc2cc(=O)n3nc(C4CCCCC4)sc3n2)cc1`, with inactive: 9.06%; and `Cc1nc(N2CCCC2)ncc1C(=O)Nc1ccccc1`, with inactive: 14.7%. On the same count and under the same terms, then `Cc1cc(O)c(C(c2cccc(Cl)c2)N2CCN(c3ccccc3)CC2)c(=O)n1Cc1ccco1` (configuration not stated), with inactive: -3.7%; and `CC(=O)N1CCCc2cc(S(=O)(=O)N3CCCC(C(=O)NCc4ccc(Cl)cc4)C3)ccc21` (configuration not stated), with inactive: 0.182%. `CCC1CN(C(=O)NCc2ccc(F)cc2)c2ccccc2O1` (configuration not stated): the “activity change, negative = inhibition” value is inactive: 5.38%. On the same count and under the same terms, the figure for `Cc1ccc(NC(=O)c2ccco2)c(OCc2cc(=O)n3cc(C)sc3n2)c1` is inactive: 0.117%; for `COc1ccc(-n2c(=O)c3c4c(sc3n(Cc3cc(=O)n5c(C)cccc5n3)c2=O)CCC4)c(OC)c1` it is inactive: -10.4%. For the molecule `CCc1ccc(CNC(=O)CSCc2cnn(-c3ccccc3)c2-n2cccc2)cc1`, the “activity change, negative = inhibition” value is inactive: -7.47%.

On to `Cc1ccc(Cn2c(=O)c3ccccc3n3c(-c4ccccc4)nnc23)cc1`, for which the “activity change, negative = inhibition” value is inactive: 4.64%. The same measure, in the same setting: the figure for `COc1ccc(C2CC(=O)N3CN(C4CCCCC4)CSC3=C2C#N)cc1` (configuration not stated) is inactive: 0.638%.

For `COc1ccc(NC(=O)CCCS(=O)(=O)c2nc(-c3ccc(OC)c(OC)c3)cc(C(F)(F)F)n2)cc1OC`, the Potency is active: 11.7 µM.

With `Cc1ccc(OCC(=O)Nc2ccc3nc(SCC(=O)N4CCCC4)sc3c2)cc1C`, the “activity change, negative = inhibition” value is inactive: -0.634%. Same read-out and setting: then `O=C(Nc1ccc2c(c1)N(C1CCCC1)C(=O)c1ccccc1S2)c1ccccc1`, with inactive: -1.72%; and `COc1cccc(-c2nc(CS(=O)CC(=O)N3CCN(c4cccc(C(F)(F)F)c4)CC3)c(C)o2)c1` (configuration not stated), with inactive: -16.4%; and `COc1ccc(CCNC(=O)C(=O)NCC(c2cccs2)S(=O)(=O)c2ccccc2)cc1` (configuration not stated), with inactive: -9.28%.

For `CCN1C(=O)CC(C(=O)Nc2ccc(OC)cc2)SC1=Nc1ccc(C)c(C)c1` (configuration not stated), the “activity change, negative = inhibition” value was inactive: -16.7%.

For the origin of these results see PubChem BioAssay AID493208 (National Center for Advancing Translational Sciences (NCATS), 2011).
